From the supplement of paper PMC7125110
± gives the standard error. This sample is rich in variants without activity.

B1: glmS ribozyme (parent)
chain: AUAAAAGCGCCAGAACUACAGAAAUGUAGUUGACGAGGAGGAGGUUUAUCGAAUUUUCGGCGGAUGCCUCCAAA

Legend:
Details in all cases: with glucosamine-6-phosphate
glucosamine-6-phosphate [1] = variants of: B1; assay: self-cleavage kobs at 40 uM GlcN6P; higher = faster cleavage; RNA array
Procedure, shortened: (§1)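 Tiles bearing barcoded ribozyme variants, transcribed in situ by E. coli RNA polymerase on sequenced MiSeq chips, were imaged over ~14 h at 37 °C using a hybridised Cy3 probe. Glucosamine-6-phosphate was supplied at 40 μM to 10 mM in HEPES/KCl/Mg(OAc)2 buffer. kobs came from one- or two-exponential decay fits to normalised per-tile medians, and weighted Michaelis–Menten fits then provided kcat and KM.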

glucosamine-6-phosphate [2] = variants of: B1; assay: self-cleavage kobs at 640 uM GlcN6P; higher = faster cleavage; RNA array
Procedure, shortened: as §1

glucosamine-6-phosphate [3] = variants of: B1; assay: self-cleavage kobs at 160 uM GlcN6P; higher = faster cleavage; RNA array
Procedure, shortened: as §1

glucosamine-6-phosphate [4] = variants of: B1; assay: self-cleavage kobs at 2500 uM GlcN6P; higher = faster cleavage; RNA array
Procedure, shortened: as §1

glucosamine-6-phosphate [5] = variants of: B1; assay: self-cleavage kobs at 10000 uM GlcN6P; higher = faster cleavage; RNA array
Procedure, shortened: as §1

Row | Variant | self-cleavage kobs at 40 uM GlcN6P (glucosamine-6-phosphate [1]) | self-cleavage kobs at 640 uM GlcN6P (glucosamine-6-phosphate [2]) | self-cleavage kobs at 160 uM GlcN6P (glucosamine-6-phosphate [3]) | self-cleavage kobs at 2500 uM GlcN6P (glucosamine-6-phosphate [4]) | self-cleavage kobs at 10000 uM GlcN6P (glucosamine-6-phosphate [5])
1 | AUAAAAGCGCCAGAACUACAGAAAUGUAGUUGACGAGGAGGAAGAUUAUCGAAUUUUCGGCGGAUGCCUCCAAA | < 1e-05 s⁻¹ |  |  |  | 
2 | AUAAAAGCGCCAGAACUACAGAAAUGUAGUUGACGAGGAGGUCGUUUAUCGAAUUUUCGGCGGAUGCCUCCAAA | < 1e-05 s⁻¹ | < 1e-05 s⁻¹ | < 1e-05 s⁻¹ | < 1e-05 s⁻¹ | 
3 | AUAAAAGCGCCAGAACUACAGAAAUGUAGUUGACGAGGAGGCGGUUUAUCGCAUUUUCGGCGGAUGCCUCCAAA | < 1e-05 s⁻¹ | < 1e-05 s⁻¹ |  | < 1e-05 s⁻¹ | 
4 | AUAAAAGCGCCAGAACUACAGAAAUGUAGUUGACGAGGAGGUGGUUUAUCGAAUUUUCGGCGUAUGCGUCCAAA | < 1e-05 s⁻¹ |  |  |  | 
5 | AUAAAAGCGCCAGAACUACAGAAAUGUAGUUGACGAGGAGCAGCUUUUUCGAAUUUUCGGCUGAUGCCUCCAAA | < 1e-05 s⁻¹ |  |  |  | 
6 | AUAAAAGCGCCAGAACUACAGAAAUGUAGUUGACGAGGAGGGGGUUUAUCGAAUUUUCCGCGGAUGCCUCCAAA | < 1e-05 s⁻¹ | < 1e-05 s⁻¹ | < 1e-05 s⁻¹ | < 1e-05 s⁻¹ | < 1e-05 s⁻¹
7 | AUAAAAGCGCCAGAACUACAGAAAUGUAGUUGACGAGGAGGAAGUUUAACGAAUUUUCGGCGGAUGCCUCCAAA | < 1e-05 s⁻¹ | < 1e-05 s⁻¹ | < 1e-05 s⁻¹ | < 1e-05 s⁻¹ | < 1e-05 s⁻¹
8 | AUAAAAGCGCCAGAACUACAGAAAUGUAGUUGACGAGGAGGUGGUUUAUCGAAUUUUCGGGGGAUGCCUCCAAA | < 1e-05 s⁻¹ | < 1e-05 s⁻¹ | < 1e-05 s⁻¹ | < 1e-05 s⁻¹ | < 1e-05 s⁻¹
9 | AUAAAAGCGCCAGAACUACAGAAAUGUAGUUGACGAGGAGUCGGUGUAUCGAAUUUUCGGUGGUUGUCUCCAAA | < 1e-05 s⁻¹ |  |  | < 1e-05 s⁻¹ | < 1e-05 s⁻¹
10 | AUAAAAGCGCCAGAACUACAGAAAUGUAGUUGACGAGGAGGCGCUUUAUCGAAUUUUCGGCGGAUGCCUCCAAA | < 1e-05 s⁻¹ | < 1e-05 s⁻¹ | < 1e-05 s⁻¹ |  | < 1e-05 s⁻¹
11 | AUAAAAGCGCCAGAACUACAGAAAUGUAGUUGACGAGGAGGGGGUUUAUCGAAUUGUCGGCGGAUGCCUCCAAA | 0.000474 ± 5.8e-05 s⁻¹ | 0.00411 ± 0.00062 s⁻¹ | 0.00171 ± 0.00035 s⁻¹ |  | 
12 | AUAAAAGCGCCAGAACUACAGAAAUGUAGUUGACGAGGAGCAGGUUUAUCGAAUUUUCCCCGGAUGCCUCCAAA | < 1e-05 s⁻¹ | < 1e-05 s⁻¹ |  | < 1e-05 s⁻¹ | 
13 | AUAAAAGCGCCAGAACUACAGAAAUGUAGUUGACGAGGAGGCGGUUUAUCGAAUUUUCGACGGAUGCCUCCAAA | < 1e-05 s⁻¹ | < 1e-05 s⁻¹ | < 1e-05 s⁻¹ | < 1e-05 s⁻¹ | < 1e-05 s⁻¹
14 | AUAAAAGCGCCAGAACUACAGAAAUGUAGUUGACGAGGAGGUGGUUUAUCGAAUUUUCGGCGGAUGACUCCAAA | 7.75e-05 ± 9.8e-06 s⁻¹ | 0.00067 ± 9.7e-05 s⁻¹ | 0.000151 ± 3.4e-05 s⁻¹ | 0.00183 ± 0.00029 s⁻¹ | 0.00183 ± 0.00019 s⁻¹
15 | AUAAAAGCGCCAGAACUACAGAAAUGUAGUUGACGAGGAGGCGGUUUAUCGAGUUUUCGGCGGAUGCCUCCAAA | < 1e-05 s⁻¹ |  | < 1e-05 s⁻¹ |  | 
16 | AUAAAAGCGCCAGAACUACAGAAAUGUAGUUGACGAGGAGAAGGUUUAUCGAAUUUUCGGCGGAUGCCGCCAAA | < 1e-05 s⁻¹ | < 1e-05 s⁻¹ | < 1e-05 s⁻¹ |  | < 1e-05 s⁻¹
17 | AUAAAAGCGCCAGAACUACAGAAAUGUAGUUGACGAGGAGGGGGUUUAUCGAAUUUUCGGCGGCUGCCUCCAAA | < 1e-05 s⁻¹ |  | < 1e-05 s⁻¹ |  | 
18 | AUAAAAGCGCCAGAACUACAGAAAUGUAGUUGACGAGGAGUAGGUUUAUAGAAUUUUCGGCGGAUGCCUCCAAA | < 1e-05 s⁻¹ | < 1e-05 s⁻¹ | < 1e-05 s⁻¹ | < 1e-05 s⁻¹ | < 1e-05 s⁻¹
19 | AUAAAAGCGCCAGAACUACAGAAAUGUAGUUGACGAGGAGAAGGGUUAUCGAAUUUUUGGCGGAUGCCUCCAAA | < 1e-05 s⁻¹ | < 1e-05 s⁻¹ |  |  | 
20 | AUAAAAGCGCCAGAACUACAGAAAUGUAGUUGACGAGGAGGCGGUUUAGCGAAUUUUCUGCGGAUGCCUCCAAA | < 1e-05 s⁻¹ |  |  |  | < 1e-05 s⁻¹
21 | AUAAAAGCGCCAGAACUACAGAAAUGUAGUUGACGAGGAGUAUGUUUAUCGAAUUUUCGGCGGAUGCCUCCAAA | < 1e-05 s⁻¹ |  |  |  | 
22 | AUAAAAGCGCCAGAACUACAGAAAUGUAGUUGACGAGGAGGGGGCUUAUCGAAUUUUCGGCGGAUGCCUCCAAA | 5.93e-05 ± 2.9e-05 s⁻¹ |  |  |  | 
23 | AUAAAAGCGCCAGAACUACAGAAAUGUAGUUGACGAGGAGGUUGUUUAUCGAAUUUUCGUCGGAUGCCUCCAAA | < 1e-05 s⁻¹ |  |  |  | 
24 | AUAAAAGCGCCAGAACUACAGAAAUGUAGUUGACGAGGAGAAGGUUUUUCGAAUUUUCGGCGGAUGCAUCCAAA | < 1e-05 s⁻¹ | < 1e-05 s⁻¹ |  | < 1e-05 s⁻¹ | < 1e-05 s⁻¹
25 | AUAAAAGCGCCAGAACUACAGAAAUGUAGUUGACGAGGAGGAAGUUUAUCGAAUUUUCGGCGAAUGCCUCCAAA | < 1e-05 s⁻¹ | < 1e-05 s⁻¹ | < 1e-05 s⁻¹ | < 1e-05 s⁻¹ | < 1e-05 s⁻¹
26 | AUAAAAGCGCCAGAACUACAGAAAUGUAGUUGACGAGGAGAAGGUGUAUCUAAAUUUCGGCGGAUGCCUCCAAA | < 1e-05 s⁻¹ |  |  |  | 
